# Measurements taken from the supplement of paper PMC8728848.
# The list shows a part of the results.
# Key:
# Assay in all cases: glycan array binding signal (z-score within array); higher = stronger binding
# Settings in all cases: glycan notation: IUPAC condensed, linker removed
# Gal(b1-2)Gal = molecular target: Gal(b1-2)Gal
# Outline: (§1)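 Arrays were curated from the Consortium for Functional Glycomics database, 3228 in total, and kept only where the protein sequence was available. Binding is expressed as a within-array Z-score. This score was averaged across arrays of the same protein sequence at different concentrations or buffers and across linkers, and negative values can be read as non-binding.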
# Gal(b1-3)Gal = molecular target: Gal(b1-3)Gal
# Outline: as §1
# Gal(b1-3)Gal(b1-4)GlcNAc = molecular target: Gal(b1-3)Gal(b1-4)GlcNAc
# Outline: as §1
# Gal(b1-3)GalNAc = molecular target: Gal(b1-3)GalNAc
# Outline: as §1
# [1] = molecular target: Gal(b1-3)GalNAc(b1-3)Gal(a1-4)Gal(b1-4)Glc
# Outline: as §1
# [2] = molecular target: Gal(b1-3)GalNAc(b1-4)Gal(b1-4)Glc
# Outline: as §1
# [3] = molecular target: Gal(b1-3)GalNAc(b1-4)[Neu5Ac(a2-3)]Gal(b1-4)Glc
# Outline: as §1
# Gal(b1-3)GlcNAc = molecular target: Gal(b1-3)GlcNAc
# Outline: as §1
# [4] = molecular target: Gal(b1-3)GlcNAc(b1-2)Man(a1-3)[Gal(b1-3)GlcNAc(b1-2)Man(a1-6)]Man(b1-4)GlcNAc(b1-4)GlcNAc
# Outline: as §1
# [5] = molecular target: Gal(b1-3)GlcNAc(b1-3)Gal(b1-3)GlcNAc
# Outline: as §1
# [6] = molecular target: Gal(b1-3)GlcNAc(b1-3)Gal(b1-4)Glc
# Outline: as §1
# [7] = molecular target: Gal(b1-3)GlcNAc(b1-3)Gal(b1-4)GlcNAc
# Outline: as §1
# [8] = molecular target: Gal(b1-3)[Fuc(a1-4)]GlcNAc
# Outline: as §1
# [9] = molecular target: Gal(b1-3)[Fuc(a1-4)]GlcNAc(b1-3)Gal(b1-3)[Fuc(a1-4)]GlcNAc
# Outline: as §1
# [10] = molecular target: Gal(b1-3)[Fuc(a1-4)]GlcNAc(b1-3)Gal(b1-4)GlcNAc
# Outline: as §1
# [11] = molecular target: Gal(b1-3)[Fuc(a1-4)]GlcNAc(b1-3)Gal(b1-4)[Fuc(a1-3)]GlcNAc
# Outline: as §1
# [12] = molecular target: Gal(b1-3)[GlcNAc(b1-6)]GalNAc
# Outline: as §1
# [13] = molecular target: Gal(b1-3)[Neu5Ac(a2-6)]GalNAc
# Outline: as §1
# [14] = molecular target: Gal(b1-3)[Neu5Ac(a2-6)]GlcNAc(b1-6)Gal(b1-4)Glc
# Outline: as §1
# [15] = molecular target: Gal(b1-3)[Neu5Ac(b2-6)]GalNAc
# Outline: as §1
# [16] = molecular target: Gal(b1-4)GalNAc(a1-3)[Fuc(a1-2)]Gal(b1-4)GlcNAc
# Outline: as §1
# [17] = molecular target: Gal(b1-4)GalNAc(b1-3)[Fuc(a1-2)]Gal(b1-4)GlcNAc
# Outline: as §1
# Gal(b1-4)Glc = molecular target: Gal(b1-4)Glc
# Outline: as §1
# Gal(b1-4)Glc6S = molecular target: Gal(b1-4)Glc6S
# Outline: as §1
# Gal(b1-4)GlcNAc = molecular target: Gal(b1-4)GlcNAc
# Outline: as §1
# [18] = molecular target: Gal(b1-4)GlcNAc(a1-6)Gal(b1-4)GlcNAc
# Outline: as §1
# [19] = molecular target: Gal(b1-4)GlcNAc(b1-2)Man(a1-3)[Gal(b1-4)GlcNAc(b1-2)Man(a1-6)]Man(b1-4)GlcNAc(b1-4)GlcNAc
# Outline: as §1
# [20] = molecular target: Gal(b1-4)GlcNAc(b1-3)Gal(b1-3)GlcNAc
# Outline: as §1
# [21] = molecular target: Gal(b1-4)GlcNAc(b1-3)Gal(b1-4)Glc
# Outline: as §1
# [22] = molecular target: Gal(b1-4)GlcNAc(b1-3)Gal(b1-4)GlcNAc
# Outline: as §1
# [23] = molecular target: Gal(b1-4)GlcNAc(b1-3)Gal(b1-4)GlcNAc(b1-3)Gal(b1-4)GlcNAc
# Outline: as §1
# [24] = molecular target: Gal(b1-4)GlcNAc(b1-3)Gal(b1-4)[Fuc(a1-3)]GlcNAc(b1-3)Gal(b1-4)[Fuc(a1-3)]GlcNAc
# Outline: as §1
# [25] = molecular target: Gal(b1-4)GlcNAc(b1-3)GalNAc
# Outline: as §1
# [26] = molecular target: Gal(b1-4)GlcNAc(b1-3)[Gal(b1-4)GlcNAc(b1-6)]Gal(b1-4)GlcNAc
# Outline: as §1
# [27] = molecular target: Gal(b1-4)GlcNAc(b1-3)[GlcNAc(b1-6)]Gal(b1-4)GlcNAc
# Outline: as §1
# [28] = molecular target: Gal(b1-4)GlcNAc(b1-6)Gal(b1-4)GlcNAc
# Outline: as §1
# [29] = molecular target: Gal(b1-4)GlcNAc(b1-6)Gal(b1-4)GlcNAc(b1-6)GalNAc
# Outline: as §1
# [30] = molecular target: Gal(b1-4)GlcNAc(b1-6)GalNAc
# Outline: as §1
# [31] = molecular target: Gal(b1-4)GlcNAc(b1-6)[Gal(b1-3)]GalNAc
# Outline: as §1
# Gal3S(b1-3)GalNAc = molecular target: Gal3S(b1-3)GalNAc
# Outline: as §1
# Gal3S(b1-3)GlcNAc = molecular target: Gal3S(b1-3)GlcNAc
# Outline: as §1
# [32] = molecular target: Gal3S(b1-3)[Fuc(a1-4)]GlcNAc
# Outline: as §1
# Gal3S(b1-4)Glc = molecular target: Gal3S(b1-4)Glc
# Outline: as §1
# Gal3S(b1-4)Glc6S = molecular target: Gal3S(b1-4)Glc6S
# Outline: as §1
# Gal3S(b1-4)GlcNAc = molecular target: Gal3S(b1-4)GlcNAc
# Outline: as §1
# Gal3S(b1-4)GlcNAc6S = molecular target: Gal3S(b1-4)GlcNAc6S
# Outline: as §1
# [33] = molecular target: Gal3S(b1-4)[Fuc(a1-3)]Glc
# Outline: as §1
# Gal3S4S(b1-4)GlcNAc = molecular target: Gal3S4S(b1-4)GlcNAc
# Outline: as §1
# Gal3S6S(b1-4)GlcNAc = molecular target: Gal3S6S(b1-4)GlcNAc
# Outline: as §1
# Gal3S6S(b1-4)GlcNAc6S = molecular target: Gal3S6S(b1-4)GlcNAc6S
# Outline: as §1
# Gal4S(b1-4)GlcNAc = molecular target: Gal4S(b1-4)GlcNAc
# Outline: as §1
# Gal4S6S(b1-4)GlcNAc = molecular target: Gal4S6S(b1-4)GlcNAc
# Outline: as §1
# Gal6S(b1-4)Glc = molecular target: Gal6S(b1-4)Glc
# Outline: as §1
# Gal6S(b1-4)Glc6S = molecular target: Gal6S(b1-4)Glc6S
# Outline: as §1
# Gal6S(b1-4)GlcNAc = molecular target: Gal6S(b1-4)GlcNAc
# Outline: as §1
# Gal6S(b1-4)GlcNAc6S = molecular target: Gal6S(b1-4)GlcNAc6S
# Outline: as §1
# GalNAc(a1-3)Gal = molecular target: GalNAc(a1-3)Gal
# Outline: as §1
# GalNAc(a1-3)GalNAc = molecular target: GalNAc(a1-3)GalNAc
# Outline: as §1
# GalNAc(b1-3)Gal = molecular target: GalNAc(b1-3)Gal
# Outline: as §1
# [34] = molecular target: GalNAc(b1-3)Gal(a1-4)Gal(b1-4)GlcNAc
# Outline: as §1
binder,measurement,setting,value
"L-Selectin (Homo sapiens), P14151 (protein) MIFPWKCQSTQRDLWNIFKLWGWTMLCCDFLAHHGTDCWTYHYSEKPMNWQRARRFCRDNYTDLVAIQNKAEIEYLEKTLPFSRSYYWIGIRKIGGIWTWVGTNKSLTEEAENWGDGEPNNKKNKEDCVEIYIKRNKDAGKWNDDACHKLKAALCYTASCQPWSCSGHGECVEIINNYTCNCDVGYYGPQCQFVIQCEPLEAPELGTMDCTHPLGNFSFSSQCAFSCSEGTNLTGIEETTCGPFGNWSSPEPTCQVIQCEPLSAPDLGIMNCSHPLASFSFTSACTFICSEGTELIGKKKTICESSGIWSNPSPICQKLDKSFSMIKEGDYNPLFIPVAVMVTAFSGLAFIIWLARRLKKGKKSKRSMNDPY",glycan array binding signal (z-score),Gal(b1-2)Gal,-0.164
same,glycan array binding signal (z-score),Gal(b1-3)Gal,-0.315
same,glycan array binding signal (z-score),Gal(b1-3)Gal(b1-4)GlcNAc,-0.402
same,glycan array binding signal (z-score),Gal(b1-3)GalNAc,-0.3
same,glycan array binding signal (z-score),[1],0.037
same,glycan array binding signal (z-score),[2],-0.301
same,glycan array binding signal (z-score),[3],-0.192
same,glycan array binding signal (z-score),Gal(b1-3)GlcNAc,-0.136
same,glycan array binding signal (z-score),[4],-0.055
same,glycan array binding signal (z-score),[5],-0.36
same,glycan array binding signal (z-score),[6],-0.036
same,glycan array binding signal (z-score),[7],-0.335
same,glycan array binding signal (z-score),[8],-0.225
same,glycan array binding signal (z-score),[9],-0.222
same,glycan array binding signal (z-score),[10],-0.356
same,glycan array binding signal (z-score),[11],-0.356
same,glycan array binding signal (z-score),[12],-0.199
same,glycan array binding signal (z-score),[13],-0.352
same,glycan array binding signal (z-score),[14],-0.314
same,glycan array binding signal (z-score),[15],-0.154
same,glycan array binding signal (z-score),[16],-0.274
same,glycan array binding signal (z-score),[17],-0.158
same,glycan array binding signal (z-score),Gal(b1-4)Glc,-0.074
same,glycan array binding signal (z-score),Gal(b1-4)Glc6S,0.942
same,glycan array binding signal (z-score),Gal(b1-4)GlcNAc,-0.06
same,glycan array binding signal (z-score),[18],-0.428
same,glycan array binding signal (z-score),[19],-0.126
same,glycan array binding signal (z-score),[20],0.132
same,glycan array binding signal (z-score),[21],-0.253
same,glycan array binding signal (z-score),[22],-0.37
same,glycan array binding signal (z-score),[23],-0.047
same,glycan array binding signal (z-score),[24],-0.38
same,glycan array binding signal (z-score),[25],-0.251
same,glycan array binding signal (z-score),[26],-0.423
same,glycan array binding signal (z-score),[27],-0.383
same,glycan array binding signal (z-score),[28],-0.336
same,glycan array binding signal (z-score),[29],-0.296
same,glycan array binding signal (z-score),[30],-0.248
same,glycan array binding signal (z-score),[31],-0.227
same,glycan array binding signal (z-score),Gal3S(b1-3)GalNAc,-0.271
same,glycan array binding signal (z-score),Gal3S(b1-3)GlcNAc,-0.333
same,glycan array binding signal (z-score),[32],3.08
same,glycan array binding signal (z-score),Gal3S(b1-4)Glc,0.043
same,glycan array binding signal (z-score),Gal3S(b1-4)Glc6S,0.516
same,glycan array binding signal (z-score),Gal3S(b1-4)GlcNAc,-0.266
same,glycan array binding signal (z-score),Gal3S(b1-4)GlcNAc6S,0.109
same,glycan array binding signal (z-score),[33],0.346
same,glycan array binding signal (z-score),Gal3S4S(b1-4)GlcNAc,0.537
same,glycan array binding signal (z-score),Gal3S6S(b1-4)GlcNAc,-0.046
same,glycan array binding signal (z-score),Gal3S6S(b1-4)GlcNAc6S,4.59
same,glycan array binding signal (z-score),Gal4S(b1-4)GlcNAc,-0.101
same,glycan array binding signal (z-score),Gal4S6S(b1-4)GlcNAc,0.095
same,glycan array binding signal (z-score),Gal6S(b1-4)Glc,-0.094
same,glycan array binding signal (z-score),Gal6S(b1-4)Glc6S,0.742
same,glycan array binding signal (z-score),Gal6S(b1-4)GlcNAc,-0.078
same,glycan array binding signal (z-score),Gal6S(b1-4)GlcNAc6S,0.501
same,glycan array binding signal (z-score),GalNAc(a1-3)Gal,-0.207
same,glycan array binding signal (z-score),GalNAc(a1-3)GalNAc,0.179
same,glycan array binding signal (z-score),GalNAc(b1-3)Gal,0.399
same,glycan array binding signal (z-score),[34],-0.345
